Consider 88 sequences from the supplement of paper PMC11417369.

± gives the standard deviation of the averaged measurements. The list shows a part of the results.

The subject of this experiment is PfAP2-LT AP2 domain (GST-tagged). In words: gcPBM binding intensity (ln(normalized median fluorescence intensity)); higher = stronger DNA binding. A digest of the protocol:
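Binding intensity is defined as the maximum Masliner-normalised natural-log median intensity across replicate spots for either probe orientation. It was measured on an Agilent 4 × 180k array of primer-extended double-stranded 36-bp intergenic genomic probes and negative controls, to which GST-tagged P. falciparum DNA-binding domains made in E. coli were applied for 1 h in 1× PBS with 1% milk, 0.2 mg/ml BSA, 0.5% salmon testes DNA and 0.03% Triton X-100. Detection was by Alexa488 anti-GST antibody and scanning at 488 nm.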
For “TTAAAAAATATATACGTTGATATAATACAACTTGAC [CACACA_negctrl_site1551]”, the “gcPBM binding intensity (ln)” value stood at 8.6 ± 0.45.
Under “TGTATAACCATAAATTGTACAGAAAAAAGTATAAAA [XGTACX_site1493]” stands 8.79 ± 0.47; under “ATTTTTTTTTTTTATGGTACACACACGCGTATGGTT [XGTACX_site3888]”, 9.57 ± 0.45; under “CATCTGGTATCTAATAGTACATATATATAATATCTT [XGTACX_site2774]”, 8.86 ± 0.4.
Under “AACAAAAGAAAAAAATATATATATTCGTCCTATTTT [CACACA_negctrl_site444]” stands 8.63 ± 0.47; under “TTTCAACTTTTGTCATGTACACATAATTTTATTGCA [XGTACX_site6701]”, 8.96 ± 0.49; under “ATTTATTTATCAAATATTATCTTAAAAAAAAAAGAA [CACACA_negctrl_site1345]”, 8 ± 0.47.
Under “ATACCAATAATATACATACACACATAAAGGTTTATA [CACACA_site314]” stands 9.17 ± 0.45; under “AAGAAAAACTAAAGAGTTCTGTTCATATCTCTTTGG [TGCATGCA_negctrl_site549]”, 8.67 ± 0.37.
For the sequence “TAATTCTTTATAATAACACACATTCATATACAATAA [CACACA_site2499]”, the “gcPBM binding intensity (ln)” value came out at 8.62 ± 0.41.
Under “GGTATTACCTGTTTGTTATGTAGATGTTGCTAGGAT [GTGCAC_negctrl_site736]” stands 8.89 ± 0.45.
Under “ACTTAAATAATACATACACACATGTACATACAGAAA [CACACA_site1595]” stands 9.16 ± 0.38.
Under “TATTTATATAGACACACACACATATATTTATATTTT [CACACA_site7240]” stands 9.39 ± 0.18.
“TTTACATTTAATAAAAGTACTTATTTCATATACATA [XGTACX_site659]”: the “gcPBM binding intensity (ln)” value came to 8.47 ± 0.43.
Under “TATATCAAATTCTAAACATGCACAAAAAACTTATAA [TGCATGCA_site510]” stands 8.55 ± 0.36; under “AAGGAAAAACCATTCGCACACACACCGAATATATAA [CACACA_site8403]”, 9.55 ± 0.38.
Under “TTATTGGTTATATAAAGTACATTTGAAATATAATTG [XGTACX_site6553]” stands 8.36 ± 0.36; under “ATAATAATTTTATGCACACAGAAAAATACAAGGTTA [CACACA_site3510]”, 9.01 ± 0.38; under “TTGCCTGACTTGTTCACACATATTTATGATATACAT [CACACA_site5783]”, 9.13 ± 0.35.
Under “TTTTCTTGGTATATGATTTATCCTAAATAAGTAAAT [CACACA_negctrl_site294]” stands 8.34 ± 0.39; under “AAAAAAAATATATATATTAAAGTTTTAATTTTTATA [CACACA_negctrl_site497]”, 8.18 ± 0.66; under “TTAGAATTTAGAGAAGTGCATATTAAGTTACGAATT [GTGCAC_site9861]”, 8.54 ± 0.51.
Take “ATTATATATATATATAGTACTTTTTTTTTTTTTTTT [XGTACX_site8801]”: the “gcPBM binding intensity (ln)” value amounted to 8.61 ± 0.51.
As for “AATATACACCCGTGTACACAAATATTTACAAAACGT [CACACA_site4786]”, the “gcPBM binding intensity (ln)” value came to 9.2 ± 0.44.
Under “AAAAGGAATGAAAATTCACACAACTATAAATACATA [CACACA_site5337]” stands 8.88 ± 0.53; under “GTTACACCAACAAACACACACACACCCACCCACAAA [CACACA_site2427]”, 10.3 ± 0.16.
Under “TGTATTATAATATTATGTACTTATAAATTTTATATT [XGTACX_site6432]” stands 8.69 ± 0.38; under “AATTTAAAGTTTTTTTTTTTTTTTTTTTTTTTTTTG [CACACA_negctrl_site1082]”, 8.28 ± 0.53; under “TCTCACATTCTTATGGGTACACATGAGAAATTATAA [XGTACX_site6799]”, 8.45 ± 0.42.
Under “TGGGTGGTAAAAATGTGTACATAAAAAAATAATGTT [XGTACX_site2235]” stands 8.78 ± 0.59.
Turning to “ATATTATTATAAAGTGGTACAATAAATGGTATTATA [XGTACX_site391]”, the “gcPBM binding intensity (ln)” value was 8.72 ± 0.47.
With “TACAAAAGTTAAACATGTACTTAATTATATGTTTTT [XGTACX_site2852]”, the “gcPBM binding intensity (ln)” value worked out at 8.57 ± 0.44.
Under “ATAAAAATGGATGAATATAAAAAAAAAAAAATATAT [CACACA_negctrl_site182]” stands 8.6 ± 0.54.
Under “GAATATATAAGAACAAATATGGCTTAGAAAAAAAAA [TGCATGCA_negctrl_site451]” stands 8.77 ± 0.45.
Under “CCCATGCATTTTTGCACACACATATATTTATAAATA [CACACA_site6785]” stands 9.44 ± 0.23; under “TATATATATGGGTTTACACACAATAATGAATTAAAA [CACACA_site915]”, 8.9 ± 0.5; under “TCAAGTTTATATTAACTATTTATGAAAAAAAAAAGA [CACACA_negctrl_site902]”, 8.23 ± 0.38.
With “CTAAAAATTTTAATTGCACACCACGTTGGACTATTT [CACACA_site1489]”, the “gcPBM binding intensity (ln)” value was determined as 8.91 ± 0.38.
Under “TTACACTAAATATGTTCACACATTTTTTCCATCATA [CACACA_site4647]” stands 8.79 ± 0.45; under “ATATATTACAAATGGAGTACTAAAAATATTCTATAT [XGTACX_site6669]”, 8.76 ± 0.39.
Under TATAAGGCAATAATAGTGCACTAAGATATATAATGA stands 9.04 ± 0.46.
Under “TGCATTTTCCTATTTGCATGCAATTAAAATATAGAA [TGCATGCA_site862]” stands 8.6 ± 0.31; under “GATTATTTAAAATATACATGCGCGCACATATGCATA [TGCATGCA_site630]”, 9.04 ± 0.44; under ATGTTTTAATGAGGTTTGCACTATATTTTAATGAAC, 8.86 ± 0.4.
Consider “AACATATATACAGTAACACACACAAAAAAATATGAA [CACACA_site9323]”, for which the “gcPBM binding intensity (ln)” value amounted to 9.41 ± 0.3.
Under “ATCACTAACATGTGTTGTACATAAAATTTGTTTGTT [XGTACX_site2207]” stands 8.87 ± 0.39; under “TTATTATTTAACATGTGGACACAAAAATTTAAGGGT [XGTACX_site4638]”, 8.72 ± 0.45.
Under “TTAACTTTTATATAGTGTACAAATAAATGCATACAG [XGTACX_site5958]” stands 8.64 ± 0.3; under “TCTACTACTTAATGGAGTACTAGCTTCATAATATTA [XGTACX_site7030]”, 8.53 ± 0.47; under “TGCAAATTTAACAAAAAAAAAAAAAAAAAAAAAAAA [GTGCAC_negctrl_site64]”, 8.05 ± 0.38.
Under “TATTATGTATAAAGAAGTACTTTTTTTTTTTTTTTC [XGTACX_site201]” stands 8.29 ± 0.54; under “TGAACACAGACAAATACACACAAAAAAAATAAATAA [CACACA_site4298]”, 9.28 ± 0.57; under “ATATAATATACTTATTGTACTTATTTAAAATACTAA [XGTACX_site4266]”, 8.44 ± 0.5.
As for “AAAAAATGGCTAGTTTGTACACAAAAGTTATTGCAT [XGTACX_site5381]”, the “gcPBM binding intensity (ln)” value worked out at 8.96 ± 0.51.
Take “AAAAAAAAATAAAAATGTACATATATAATATTATAT [XGTACX_site71]”: the “gcPBM binding intensity (ln)” value came out at 8.76 ± 0.47.
On to “AAGATAAAATTATGCACACATACGAATAATTTTAAA [CACACA_site1705]”, for which the “gcPBM binding intensity (ln)” value was found to be 8.95 ± 0.43.
Under “TTTCTCAATTCTTAGAGTACATAAATAAAAAAAAAA [XGTACX_site7639]” stands 8.07 ± 0.33; under “TTTTACAATAACAATACACACTATAATATATATATA [CACACA_site4893]”, 8.77 ± 0.28.
Under “TAGGAGCCGAAACACACACACAAAAAAAAAAAAAAA [CACACA_site1731]” stands 9.47 ± 0.61; under “CATATATATAAATACACACACACACCCCTTATAATT [CACACA_site4064]”, 10.2 ± 0.15; under “AAAAGAATTTGAAGTCGTACAATATCTATTATATGA [XGTACX_site8275]”, 8.74 ± 0.39.
Under “TCAATAGTTACTAGTACATGCAAAAATAAACCTATA [TGCATGCA_site85]” stands 8.92 ± 0.38; under “CAAATATATATGTTCACACATATAATTATTGTGAAA [CACACA_site4190]”, 8.69 ± 0.4; under “TTGCCATTAATTTATACACACACATTTTAATTTTTT [CACACA_site8150]”, 9.16 ± 0.39.
Take “TTGTCATTTATAAAATGTACGTGTGTATATATTTAA [XGTACX_site5000]”: the “gcPBM binding intensity (ln)” value came out at 8.8 ± 0.38.
On to “AACATTTTTAAATATATAAAAATATATATATATATA [XGTACX_negctrl_site551]”, for which the “gcPBM binding intensity (ln)” value stood at 8.89 ± 0.18.
On to “TTATATTTATGATACACACACGTATATTCACATACA [CACACA_site6354]”, for which the “gcPBM binding intensity (ln)” value came to 9.29 ± 0.3.
As for “TTTTAAAGCATATCATATAAAGAACATGACATAGGA [CACACA_negctrl_site630]”, the “gcPBM binding intensity (ln)” value amounted to 8.59 ± 0.4.
Under “GTATGTTTAATTTTAGTGCAATTATAAATATTTTAA [GTGCAC_site9531]” stands 8.35 ± 0.35; under “AAGAAAATAAAATAAAAAAAAAAATAAAAAAAATAA [TGCATGCA_negctrl_site516]”, 8.37 ± 0.74.
Under “AAATTGTCTGCATATAGTACATAAATATATTAATAT [XGTACX_site4557]” stands 8.68 ± 0.45.
Under ATATATATATATATAGTGCATAATGTTTTAATAGAT stands 9.29 ± 0.16; under “TCTTTATATATATATATATGTGTGAATGTTAAGTAT [XGTACX_negctrl_site135]”, 9.19 ± 0.3; under “ATTTTTTTTTTTTCCTTACACACATATTTCATTTTA [CACACA_site748]”, 9.29 ± 0.61.
For the sequence “TACATTTTTATTTTTACACACATATATATATATATA [CACACA_site1021]”, the “gcPBM binding intensity (ln)” value turned out to be 9.24 ± 0.13.
Under “CTATTAAAAAAATTATGTACACAACGTCTCTATATA [XGTACX_site4813]” stands 8.71 ± 0.43.
Under “TATTATTTTATGAGACATAAAAAAAAAAAAAAAAAA [CACACA_negctrl_site1534]” stands 8.04 ± 0.46; under “TATAATATATTTATATGTACTTATTTATTTATATAT [XGTACX_site6519]”, 8.66 ± 0.47; under “GAGTTTATTCTTTTTATACACACCTTATTTGATTAA [CACACA_site735]”, 8.92 ± 0.45.
Under “AAGTATTATTATAAGACACACATGTATATAAGTATA [CACACA_site1479]” stands 9.14 ± 0.53.
Regarding “TTAAGTATTTTACGTACACACTTATAAATGTACAGG [CACACA_site6012]”, the “gcPBM binding intensity (ln)” value stood at 8.73 ± 0.4.
Under “TAATCCATAAGAAGCACACACATATAAATATATTTT [CACACA_site6774]” stands 9.19 ± 0.37; under “TTTAAATATTTTAACACACTCATATTTAGGTTACAA [CACACA_site5685]”, 8.62 ± 0.52; under “TTTACATATTTATATACACACTTTTGCGTGTCTGGT [CACACA_site4750]”, 9.33 ± 0.68.
Under “TCCATATATATTATGTGTACATATTATATATATAAA [XGTACX_site7525]” stands 8.53 ± 0.34; under “AGTAAAAGAAAGCACACACACATGTATATATGTATG [CACACA_site3858]”, 9.75 ± 0.41; under “CAATATAAAAAACACACGCACACAAAAAAAAAAAAA [CACACA_site3521]”, 9.46 ± 0.42.
As for “GTAATATTATATAGTTGTACTTTTTTTTTATTATAT [XGTACX_site483]”, the “gcPBM binding intensity (ln)” value was 8.79 ± 0.48.
